Laboratory results as given in the RNAGym collection of RNA variant scans (doi:10.7554/elife.90254).
The source gives no read counts; variants with many changes may rest on few reads.

B1: OR4K15 (parent)
chain: GUUAACGGUCAUAGGCCAUGGAAACUAGGAGCACCAUUUCGCUGCCAGUGAAGAAAUGAACAAAGAAAAUCUGGGCCAGGCAGGCAUCAAAAGAAAUAGUCUUGCGCUCAACCAGAAAGUCUGUAAUCAUUUUAAGGGUA

Variants of: B1
Test: self-cleavage, relative activity (ratio to wild type); higher = more cleavage; in vitro, sequencing; the parent is a self-cleaving ribozyme

| Variant | self-cleavage |
| --- | --- |
| A4G U38C C77U | 1.15 |
| A5G U19A A30G A52U A92U U132C | 1.1 |
| A5U A22U A59G U108C A116G | 0.04 |
| A5G A89G U97C A110G U120G | 0.09 |
| A5G A13G U37C C45U A51G A52G U120C | 1.21 |
| A4G U102C A125U | 2.14 |
| A5G U12A A51U A59G A114G | 0.25 |
| A5G U26C A95G | 2.22 |
| A5G A23G A114U | 0.33 |
| A5G U9C U49C | 1.34 |
| A5G A30G U49C | 1.34 |
| A5U A54G A69G A86G U120C | 1.07 |
| A5G G79U A94G U102C | 0.22 |
| A5U G20U A30G U37C A86G U127A | 1.75 |
| A5G A63G A134U | 1.1 |
| A5G A24G A27U A67G | 1.02 |
| A5G A51G A54G A55G | 1.18 |
| A5G A24G U39A A90U A98G U103C U122A | 0.22 |
| A4G U26C U37A C85U U132A | 0.83 |
| A5G A51U C109U U122C | 0.37 |
| A5G G15A G80C | 0.14 |

| Variant | self-cleavage |
| --- | --- |
| A5C U38C A68G U122A | 0.87 |
| A5G A62G A94G U103G A114U | 0.09 |
| A5G A54G A78C | 0.33 |
| A5G A47U A67G A78G A86C A92G A140G | 0.13 |
| A5G A78U U87C | 0.44 |
| A5G A68G U127A | 1.71 |
| A4G U43A A55G | 1.28 |
| A4G U49G A68G U70C U103C U127A | 0.37 |
| A5G A64U U127C U131C | 0.49 |
| A5G A64G U139A | 0.94 |
| A5G C32G A33G A86G A92G A125G | 0.81 |
| A5U A59G U120A A129U | 1.09 |
| A5G A30U C121U | 1 |
| A5G A96U G99A | 1.16 |
| A5G U9C U38A A52U C71A | 1.17 |
| A5U U9C U57C U87A A140C | 1.09 |
| A5G U19A A55G A68G U139C | 0.87 |
| A5G A23G U43A | 0.82 |
| A5G A11G A36C A82G | 0.7 |
| A5G G106U U120C | 0.02 |
| A5G A78G U108C A117G | 0.04 |

| Variant | self-cleavage |
| --- | --- |
| A5U C61A G79U A116G A117G | 0.08 |
| A5G A78G U100C | 0.85 |
| A5G A11C A68G U108C U120G | 0.04 |
| A5G A18G A54G U87C A111U U131C | 0.03 |
| A5G C32U U102C | 0.82 |
| A4G U39A A52G A86U U130C | 1.22 |
| A5G U9C A111G | 0.14 |
| A5G C17U A59U A96G | 1.07 |
| A5G U37C A47G U49A A52G A64G A92C C105A U122A | 0.01 |
| A5U A68G A91G A125G | 0.86 |
| A5C A64G A118G | 0.93 |
| A5G A23G A82U | 0.46 |
| A5G A22G A52C U131C | 0.77 |
| A5U A69C A91G | 0.85 |
| A5G A33G A63G A95G | 0.83 |
| A5G A86G A111C | 0.06 |
| A5G U49C A54G U102C A135G | 1.4 |
| A5G A82G A92G U139C | 0.73 |
| A5U A27U A55G U131C | 0.79 |
| A4G U9A A11G A60G A92G A95G A135U | 1.62 |
| A5G G44A U70A A86U A89U A111G A129U | 0.03 |

| Variant | self-cleavage |
| --- | --- |
| A5C U49C A60G | 1.92 |
| A4G U12C A54U A91G U122A | 1.14 |
| A4G U87A A91G | 1.81 |
| A5G A54G A98G | 1.18 |
| A5G A36C U57A A63G U87C U100C A116G | 0.69 |
| A5U A47G U72C A86U A94U A110G | 0.05 |
| A5G A60G A66G U97C U108C A116G | 0 |
| A4G U19C U26C | 0.68 |
| A5U A66G A116C | 0.17 |
| A5G A67G A89U U97C U100C | 2.07 |
| A5G A11G U87A A90G U132A | 0.91 |
| A5G A33G U130C | 0.33 |
| A5G G21A G28C | 0.82 |
| A4G U43C A55G A92G | 0.7 |
| A5G A36U A135G | 1.03 |
| A5C A59G U87A U120G | 1.45 |
| A4G G74A A78U G93U | 0.21 |
| A5G A126G U130C | 0.47 |
| A5C U49C A66U U100C A114U A117U U132C | 0.08 |
| A5U A62G A90G U120C | 0.65 |
| A5G A22G A60G A89G | 0.58 |
